# PubChem BioAssay AID1345083 (National Center for Advancing Translational Sciences (NCATS), 2018)
# In all, about 94,000 compounds went through this assay and about 6,200 (6.6%) were called active. Inconclusive results, whose numbers are uncertain, are shown with a selection of clear calls. The call rests on the fitted dose curve; in most records, active means well fitted inhibition curve with a large enough effect; inconclusive means small, poorly fitted or top-dose-only effect; inactive means flat fitted curve, though single readings scatter. Potencies of inconclusive entries are doubtful fits and often do not repeat.
# Experiment: Cytotoxic Profiling in HEK 293 Cell Line of Diverse Libraries Using Quantitative High-Throughput Screening; further: nearly all actives have a fitted effect of over 60% in size
# Conditions: HEK 293 viability, ATP luminescence (CellTiter-Glo), 48-72 h; series mostly up to 115 µM
# In short: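 Read-out: CellTiter-Glo ATP luminescence. Cells: HEK 293, 250 cells/well. Exposure: 48 or 72 hr, 37 degree Celsius.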
# Potency means the concentration at half of the fitted maximal effect; tags describe the fitted curve by direction and shape.
row,SMILES,Potency
1,CC(C)Nc1ncnc2c1CN(C1CCCNCC1)C(=O)CN2C (stereo not given),inactive
2,Cc1cccc(N2CCN(C(=O)c3noc(-c4ccc[nH]c4=O)n3)CC2)c1,"inconclusive: 100 µM [inhibitor, single point]"
3,CS(=O)(=O)N1CC2(CCCCN2Cc2cccnc2)Cc2ccccc21 (stereo not given),inactive
4,COc1cc(C)c(-c2nc(CN3CCCC(CN)C3)c(C)o2)cc1C (stereo not given),active: 31.6 µM
5,COCCCn1c(=O)c(C(=O)NCC2CC2)nc2cccnc21,inactive
6,OC[C@@H]1CN(Cc2cccc3[nH]ccc23)C[C@H]1c1ccncc1,inactive
7,Cc1ccc(C2Cn3cnc(C(=O)N4CCC(C(=O)NCc5ccccc5)CC4)c3CO2)cc1 (stereo not given),"inconclusive: 44.7 µM [inhibitor, partial curve, poor fit]"
8,COc1ccc(NC(=O)N2C[C@@H]3C[C@H](C2)c2ccc(NS(=O)(=O)c4ccc(OC)cc4)c(=O)n2C3)cc1,inactive
9,Cc1oc(C(C)C)cc1C(=O)N1CC[C@](C)(O)[C@@H](O)C1,inactive
10,O=C(Nc1cc(F)cc(C(F)(F)F)c1)N1CCCOC(Cn2cccn2)C1 (stereo not given),"inconclusive: 31.6 µM [inhibitor, full curve, poor fit]"
11,Cc1ccc(-c2c(C(=O)NCCc3ccccc3)nc3sccn23)cc1,active: 44.7 µM
12,CN1CCc2c([nH]c3ccccc23)C12CCN(C(=O)c1ccccn1)CC2,inactive
13,CCOC(=O)CCCOc1cccn2c(=O)c(-c3cc(C)n(-c4ccc(Cl)cc4)n3)c(C)nc12,inactive
14,COCc1nc(CCNC(=O)COc2ccc(F)cc2)no1,inactive
15,O=C(NCCc1ccccc1)[C@@H]1C[C@H](c2ccc(F)cc2)N([S+](=O)([O-])C2CC2)C1,inactive
16,Cc1ccc(NC(=O)N2CCC(CCNC(=O)C(C)C)CC2)cc1F,inactive
17,COc1cc(Cl)ccc1-c1ccc(COc2ccc3c(cnn3CCC(=O)O)c2)cc1,"inconclusive: 100 µM [inhibitor, partial curve]"
18,N#Cc1ccc(C(=O)N2CCC3(CC2)NC(=O)N(Cc2ccc(Cl)cc2)C3=O)cc1,"inconclusive: 50.1 µM [inhibitor, partial curve, poor fit]"
19,Cc1ccc(CNC[C@H]2Cn3cc(-c4ccccc4)nc3CO2)cc1,"inconclusive: 126 µM [inhibitor, single point]"
20,CC(C)N1C(=O)C2(CCCC2)C1C(=O)N1CCc2ccccc21 (stereo not given),"inconclusive: 39.8 µM [inhibitor, single point]"
21,COc1ccc(N2CC(C(=O)N3CCOCC3)NC2=O)cc1 (stereo not given),inactive
22,Cc1nc2scc(CC(=O)NC3CC3)n2c(=O)c1-c1cc(C)n(-c2ccccc2F)n1,inactive
23,CCC(C)n1c(C(C)NC(=O)OCc2ccccc2)nc2cccnc21 (stereo not given),"inconclusive: 89.1 µM [inhibitor, single point]"

row,SMILES,Potency
1,COCCNC(=O)c1cc(-c2ccc(Cl)cc2Cl)c2nncn2n1,inactive
2,CC(=O)Nc1cccc(-c2ccc3ncn(-c4ccc(F)cc4F)c(=O)c3n2)c1,active: 89.1 µM
3,Cc1cnc(CC2CCN(C(=O)CCC3CCCC3)C2)n1CC1CC1 (stereo not given),"inconclusive: 56.2 µM [inhibitor, partial curve, poor fit]"
4,CN(C)CC(=O)N1CCC2(C1)CN(C)c1ccc(C(=O)Nc3ccccc3)cc12 (stereo not given),"inconclusive: 112 µM [inhibitor, single point]"
5,Cc1ccc(Nc2ccnc(N3CCCC(C(=O)NCC4CCCCCC4)C3)n2)cc1 (stereo not given),active: 28.2 µM
6,O=C(c1ccccc1F)N1CCC2(CC1)CC(N(Cc1ccc(F)cc1)C1CC1)CCO2 (stereo not given),"inconclusive: 50.1 µM [inhibitor, partial curve, poor fit]"
7,Cn1c(=O)c2ccnn2c2ccc(C(=O)Nc3ccc(N4CCOCC4)cc3)cc21,"inconclusive: 56.2 µM [inhibitor, partial curve, poor fit]"
8,O=S(=O)(Cc1ccccc1)N1CCC(Cc2nncn2-c2ccccc2)CC1,"inconclusive: 50.1 µM [inhibitor, partial curve, poor fit]"
9,CC(C)CNC(=O)C(C)(C)Oc1nn(C(C)C)c2ccc(CN3CCOCC3)cc12,"inconclusive: 126 µM [inhibitor, single point]"
10,CN(CCNC(=O)C1CCCN(S(C)(=O)=O)CCC(=O)NCC1)C1CCCCC1 (stereo not given),inactive
11,Cn1cnc(CN2CCNc3cc(Nc4ccccc4)ncc3C2)c1,"inconclusive: 112 µM [inhibitor, partial curve, poor fit]"
12,COCCCNC(=O)c1cn2cc(-c3cccc(C(F)(F)F)c3)sc2n1,"inconclusive: 50.1 µM [inhibitor, partial curve, poor fit]"
13,Cc1ccccc1-c1nc2cnccn2c1NCCC(=O)N(C)Cc1ccccc1,inactive
14,NC[C@H]1O[C@@H](CO)[C@@H](O)[C@H]1N1CCN(c2ccccn2)CC1,inactive
15,Cc1noc(C)c1C(=O)N1CCCC2(Cc3ccccc3CN2C(=O)C2CCCC2)C1 (stereo not given),"inconclusive: 100 µM [inhibitor, partial curve, poor fit]"
16,Cn1cccc1C(=O)N1CCN(c2cc(-c3ccc(Cl)cc3)[nH]n2)CC1,"inconclusive: 50.1 µM [inhibitor, partial curve, poor fit]"
17,Cc1ccc(CN2CCn3c(nnc3[C@@H]3C[C@@H](O)CN3Cc3cccnc3)C2)o1,"inconclusive: 44.7 µM [inhibitor, partial curve, poor fit]"
18,Cn1cccc1C(=O)N1CCCCCNC(=O)[C@H]2C[C@H](C(=O)N3CCc4ccccc4C3)C[C@H]21,"inconclusive: 50.1 µM [inhibitor, partial curve, poor fit]"
19,Cc1nc(-c2ccc(OC3CCN(C(=O)Nc4ccccc4)C3)cc2)no1 (stereo not given),"inconclusive: 50.1 µM [inhibitor, partial curve, poor fit]"
20,O=C(C1CCCC1)N1CCC2(CC1)CC(c1cccc(C(F)(F)F)c1)=NO2,active: 44.7 µM
21,COc1ccc(Cn2c3c(c(=O)n2Cc2ccccc2)CCN(C(=O)c2ccnn2C)C3)cc1,inactive
22,COc1ccc2nc([C@H]3CCN(Cc4ccc(F)c(F)c4)C3)[nH]c2c1,"inconclusive: 79.4 µM [inhibitor, partial curve, poor fit]"
